167 variants from the RNAGym collection of RNA variant scans (doi:10.7554/elife.90254) can be followed below.

Read counts are not given, so values of variants with three or more changes are uncertain.

The chains are these.
B1: LINE1-full (parent)
chain: UACGUAGGUGGUUUUCCCCUGAUAGUGCUAAGGGGGCCUGGAAGUUUGGACUGGGCAGAGCUCAACACAGCGUGGCAAAGUGGCUGUGGCUAGACUGCCUCUCUGGAUUCCUCGUCACUCAGCAGGGCAUCUCUGAGAGAAAUGCC

The data set covers variants of B1. Description: self-cleavage, relative activity (ratio to wild type); higher = more cleavage; in vitro, sequencing; the parent is a self-cleaving ribozyme.
In the case of U13C A94G C120U, the self-cleavage is 0.16. As to U13C C38A A64G A107G, the self-cleavage was 0.26. In the case of U13C A92U A94G, the self-cleavage amounted to 0.13. With U12G A50G C103A U112C U130C, the self-cleavage stood at 1.31.

Take U12G U20C A94G G127A: the self-cleavage stood at 1.02.

In the case of U13C A57G U134G, the self-cleavage was determined as 1.31. For the variant U13A A64C A140U, the self-cleavage was 0.

With U13C A22G A64G A77U, the self-cleavage came to 0.15. In the case of U13C A42G U45C A79G G86A U109C it was 0.14; in that of U13A U73C A136G, 1.45; in that of U13C C128U A141G, 1.58. Regarding U13C C66A A69G U115C, the self-cleavage was 0.

Turning to U13C G35C C113U, the self-cleavage was found to be 0.88. In the case of U13A U20A U29C A42G C99U U108C, the self-cleavage came to 0.64. Take U13C A79G U102A: the self-cleavage is 0.93. As to U13A A57U U112C, the self-cleavage was 0.1. On to U13C C28U A124G, for which the self-cleavage worked out at 0.84.

Regarding U13A U20C A22G U100C U119C C131A, the self-cleavage is 1.53. For the variant U13C A24U A43G U109C, the self-cleavage was determined as 0.

U13A G36A A50G A57G: the self-cleavage was 0.28. The figure for U13A U23A C90U U100A is 0.02; for U12C U112C C128A it is 1.25.

For the variant U12G A24G G54A A142G, the self-cleavage is 0.87.

Turning to U13C A43G U62C G72U, the self-cleavage was determined as 0.09.

As to U12G U85A C110A, the self-cleavage amounted to 0.09. U12G U46C G48A A50G: the self-cleavage worked out at 0.88. Consider U13C A22G A42G A79U U119C, for which the self-cleavage is 1.62. In the case of U13C A77C C110U A117G U130C it was 1.67. For U12G G41A A57G, the self-cleavage was 0.64.

For U13C A141G U143G, the self-cleavage amounted to 1.48. With U13C A31U G127C, the self-cleavage stood at 0.81. For U12G A43G U134C A140G, the self-cleavage turned out to be 0.95. Take U13C G33A U85C: the self-cleavage is 0.22. For U13C A30G U143C, the self-cleavage worked out at 0. In the case of U13A U14C U143C it was 0.95; in that of U12G G36C A43G A57G U85C, 0.48; in that of U12G A57U U115C U119G A136G A142G, 1.15.

As to U13C C133U A138G, the self-cleavage was found to be 0.86. Take U13C A64C U96C U115C: the self-cleavage was 0. In the case of U13A U46C A92U G97A A142G it was 0.05; in that of U13A U45A U73C A124G G126U A129C A141G, 1.12.

U13C U14A A22G A64G C76U G83U: the self-cleavage is 0.28. With U13C A78G G83A, the self-cleavage stood at 0.56. Regarding U13A U62C U96C U143C, the self-cleavage was found to be 0.04. On to U12G A42U A140G, for which the self-cleavage turned out to be 1.27. On to U13C U14A U52A U119C A142U, for which the self-cleavage turned out to be 1.16. As to U13C C56U U96A U108C, the self-cleavage amounted to 0.05.

Consider U13C A67G U109G, for which the self-cleavage came to 0.31.

For U13A U29A C71U, the self-cleavage amounted to 0.74. In the case of U13C A30U U46C U100A it was 1.11; in that of U13A U29C C133A A138G, 1.09; in that of U12G A64U A94G, 0.45. For U13C G70A A94G U112A U119C U134C, the self-cleavage is 0.28. Turning to U13C A94G U109C, the self-cleavage came out at 0.16. On to U13C A64C U96A U132C, for which the self-cleavage was found to be 0.08.

As for U12G A59G G75A, the self-cleavage was 0.11. For the variant U13A U14C U87C, the self-cleavage worked out at 0.38. The figure for U13C G75A A77G U102C A138U is 0.9; for U12G A42U A79C U112A it is 0.89; for U12G U20C U115C A129U it is 1.72.

As for U13C A59G A67G C101U, the self-cleavage is 0. Consider U13C A43G A50G A65G, for which the self-cleavage amounted to 0. Turning to U13C A92G U130C, the self-cleavage is 0.19.

With U13C G34U U62A A77G A78G U100A, the self-cleavage came out at 0.17. For the variant U13C G33A A50G A136G, the self-cleavage came to 1.09. With U12G A24G A67U U130C, the self-cleavage was found to be 0.46. In the case of U12G U85C U91C it was 0.71; in that of U12G U14C U100A A121G, 0.31.

In the case of U12G A50G A64U A129G, the self-cleavage turned out to be 1.09. With U12G C38A U46C A67G U108C A124U U134A A138U, the self-cleavage amounted to 0.44. As to U13C G72A A124G, the self-cleavage was 0.76. Take U13C G54U A124U A136G: the self-cleavage amounted to 1.03. On to U12G A43G A69G G72C U73C, for which the self-cleavage is 2.63. The figure for U12G G41A U119C U132C G139U is 1.34. In the case of U12G U62C U132C it was 0.04; in that of U13C A124G U134A A138G, 0.22; in that of U12G U115A A121U U130C, 1.02.

Take U13A C16A A78G: the self-cleavage was found to be 0.47. In the case of U13A U15C A69G it was 0.19. Consider U13A A77G G126A A140U, for which the self-cleavage was 1.25. In the case of U13C A59U A117G C123U A142U it was 0.75. With U13C A42U U85A, the self-cleavage is 0.11. As for U13A U81A G83A, the self-cleavage turned out to be 1.21. In the case of U12G U15A A43G U47A U87A U96A, the self-cleavage was determined as 0.25. For U12G U87C A121G, the self-cleavage came to 0.

With U12G A22G U104A A124G U132C, the self-cleavage stood at 0.59. On to U13A U102C A140G, for which the self-cleavage came to 1.33. In the case of U12G U13C G35U A43G it was 1.16. The figure for U13C G33A U96A is 0.19; for U12C U115C A138U it is 2.04; for U13C C51U U108C it is 2.76.

U13A A42G U45C: the self-cleavage was found to be 0.56. Turning to U13C A78G U96C A141G, the self-cleavage was 0.45.

On to U12G U47C A59G U81C, for which the self-cleavage is 0. For U13A U15A A22U U47C, the self-cleavage was determined as 0.46. Take U13C G25U C37G: the self-cleavage was 1.4. As to U13C A24G U102C A117G, the self-cleavage came out at 0.92.

As for U13C A79G A124G, the self-cleavage was found to be 1.15. Regarding U13A A43G A57U U62G, the self-cleavage was 0.19. In the case of U13A U20C U52A U62G A92G G93A, the self-cleavage was determined as 0. For U12G A42G A142G, the self-cleavage worked out at 0.59. Regarding U12G A64G C133U, the self-cleavage was 0.24. The figure for U12G G97A U119C A138U is 0.25; for U13C A30G G74A it is 0.85; for U13C A79G U102C A138G it is 1.06. In the case of U13C A22G U81G U132C, the self-cleavage was found to be 0.

Regarding U13C A77G A140G, the self-cleavage amounted to 0.95. Consider U13A U52C A94U, for which the self-cleavage amounted to 0.48. Regarding U13C A79G U96A, the self-cleavage stood at 0.13. The figure for U13C A77G U87A is 0.2; for U13A U47C A50G C111U it is 0.89. Turning to U13A A31U U73C U100A U109C, the self-cleavage amounted to 0.51. On to U12G A69G A140G, for which the self-cleavage was 0.69. U13C A22G G58U G74A: the self-cleavage worked out at 0. U13C C56U U115C: the self-cleavage came out at 0.22. The figure for U13C G54U U108C U134A is 1.41; for U12G A24U U47A it is 1.09. For U12G U47A U87A A124G, the self-cleavage is 0. As for U13A G21A A64G C113A, the self-cleavage was 0.09. In the case of U13C A22U U26C A59G U62A, the self-cleavage stood at 0.19. The figure for U13C A31G A50G is 0. On to U13C G34U A77G U112A A138G, for which the self-cleavage is 0.98. On to U13A A65G U85C, for which the self-cleavage came out at 0.09. Consider U13A A65G A79G U134C, for which the self-cleavage turned out to be 0.

For U13A U29A A42G A69U A129G, the self-cleavage worked out at 0.1. As to U13A U52C G54A U112G U130C, the self-cleavage is 0.74. Turning to U12G A22G U47A A79G U100A A124U, the self-cleavage came out at 0.56. With U13A U14C U23C U47G U87G, the self-cleavage was found to be 0.21.

Turning to U13C A69U U134C A140G, the self-cleavage stood at 0.18.

U13C A24G U45A A59G U112A A136U: the self-cleavage was found to be 0.22. As for U13C G49U U143A, the self-cleavage is 0.85. In the case of U12G G54A A117G it was 0.94.

Regarding U13C G33A A50G C90U A117C, the self-cleavage was 0.08. As for U12C U130C U134A, the self-cleavage worked out at 1.28. The figure for U12C U130C U134C is 1.84. The figure for U12G A50G U73C is 1.84; for U13C A50U A67U A117G A129U it is 0.3. Consider U13A U102C G114A U119C C128U, for which the self-cleavage was determined as 0.55. On to U12G A42G U52C A59U A64G U112A, for which the self-cleavage was 0.

Consider U12G A107U G126A G127U U132C C146A, for which the self-cleavage came to 1.37.

For the variant U12G U91C A121G, the self-cleavage was determined as 1.11.

Take U13C G48A U73C A141G: the self-cleavage came to 1.2. Regarding U13A A79G U108C, the self-cleavage was determined as 2.04. Consider U13C G74A U119A, for which the self-cleavage stood at 1.44. For the variant U13A A94G A129G U130C, the self-cleavage turned out to be 0. The figure for U13C G122U A136G is 0.98. In the case of U13C C19U A136U, the self-cleavage was 0.77.

On to U13A U100C U104C, for which the self-cleavage stood at 0.81.

Take U12G U15C A67G A77U C146U: the self-cleavage came out at 0.87. U13A A24U A59G: the self-cleavage was 0.06. As to U12C U130C A140G, the self-cleavage was determined as 1.45. Consider U12G A22G A59U A64G A142G, for which the self-cleavage was 1.34. In the case of U13C A50G U62C U104A U132C, the self-cleavage was determined as 0.31. With U13C A22G U62C A129U U132C, the self-cleavage was found to be 0.46. U13C A42G U96C U143C: the self-cleavage was 0. Consider U12G C28U U104A, for which the self-cleavage was determined as 0.59. With U13A A31U U62C, the self-cleavage was 0.03. In the case of U12G U14C U85G A121C U143A it was 0; in that of U13C C66G A92G U134C G139U, 0.07; in that of U13C A69G A142C, 0.41.

On to U13C A50G A117G, for which the self-cleavage amounted to 1.62.

Take U12G U13A U119C U143C: the self-cleavage turned out to be 0.88. As to U12G U13C U45C U112A, the self-cleavage is 0. On to U13C G36C A138G, for which the self-cleavage was found to be 1.5. With U13A A22U C51A U109C, the self-cleavage was 1.17. In the case of U13C G53A U115C U132C, the self-cleavage was determined as 1.46.

For U13C C51G A64U U73C U87A, the self-cleavage came out at 0.48.
